Reference: PubChem BioAssay AID1030 (National Center for Advancing Translational Sciences (NCATS), 2008)
The whole screen tested about 220,000 compounds, of which about 16,000 (7.3%) were called active. The inconclusive results got no clear call from the source; some entries with a clear call stand among them for comparison. Calls come from the whole dose curve; as a rule, active = well fitted inhibition curve with a large enough effect (not every such curve was filed as active); inconclusive = small, poorly fitted or top-dose-only effect, or another doubt; inactive = no such curve, though single readings can be large or run the other way. Potencies beside an inconclusive call are fits to weak or partial responses and may not hold up.

Molecular target: Aldehyde dehydrogenase 1A1 (Homo sapiens) (UniProt P00352)
Chain of UniProt P00352 (P00352 whole entry, looked up): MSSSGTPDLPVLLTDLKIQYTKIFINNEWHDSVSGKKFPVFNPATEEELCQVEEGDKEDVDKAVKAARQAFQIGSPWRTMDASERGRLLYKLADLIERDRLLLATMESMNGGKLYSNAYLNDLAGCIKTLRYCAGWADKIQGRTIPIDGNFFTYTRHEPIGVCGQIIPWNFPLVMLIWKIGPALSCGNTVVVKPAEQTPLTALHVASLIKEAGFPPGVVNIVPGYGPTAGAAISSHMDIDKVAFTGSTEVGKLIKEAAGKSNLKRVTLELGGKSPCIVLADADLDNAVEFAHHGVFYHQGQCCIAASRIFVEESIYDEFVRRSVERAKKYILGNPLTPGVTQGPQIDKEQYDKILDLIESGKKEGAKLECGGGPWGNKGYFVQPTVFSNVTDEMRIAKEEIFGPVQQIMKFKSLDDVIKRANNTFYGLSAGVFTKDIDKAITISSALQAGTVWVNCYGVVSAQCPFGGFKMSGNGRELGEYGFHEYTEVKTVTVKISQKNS
Experiment: qHTS Assay for Inhibitors of Aldehyde Dehydrogenase 1 (ALDH1A1);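 for activity, negative = inhibition: plate controls were no enzyme wells and a reference inhibitor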
Conditions: Purified ALDH1A1, NADH fluorescence, propionaldehyde substrate; series mostly up to 75.3 µM; activity, negative = inhibition: at the top concentration
Potency is the fitted concentration of half-maximal effect; tags give direction and shape of the fitted curve.

activity, negative = inhibition, inactive:
O=C(NCc1cccs1)c1ccccc1[N+](=O)[O-] 7.52%
CO[C@@H]1COC(=O)[C@@H](CCSC)NC(=O)C/C=C\[C@@H](C)COC(=O)[C@H](C)NC(=O)C/C=C\[C@H]1C 2.9% [at 13.5 µM]
C=C(C)C1CC=C(C)/C(=N\NC(=O)CCc2ccccc2)C1 (centres undefined) 1.42%
Cc1cc2ccccc2cc(C)c1=O 3.03%
COC(=O)CNC(=O)Cc1c(F)cccc1Cl 9.53%
Cc1ccc(C(=O)Oc2ccc3c(c2)ncn3C)cc1 -13.2%
O=C(CSc1nc(C2CC2)nc2ccccc12)Nc1ccc2c(c1)OCCO2 3.13%
COc1cc(/C=C/C(=O)N2CCCN(C(=O)/C=C/c3cc(OC)c(OC)c(OC)c3)CC2)cc(OC)c1OC -10.8%
N#Cc1c(C(F)(F)F)cc(-c2ccccc2)nc1SCc1nc(N)nc(N2CCOCC2)n1 0.497%
COC(=O)C1=C(C)Nc2ncnn2C1c1ccc(OCc2ccccc2)cc1 (centres undefined) -2.4%
Cc1ccc(CCNC(=O)CCc2nc3ccccc3[nH]2)cc1 -1.7%
CCC/C=C(\CCC)C(NS(=O)(=O)c1ccc(Cl)cc1)c1ccccc1 (centres undefined) -3.05%
CCOc1ccc(NC(=O)CSc2nc(-c3cccs3)cc(C(F)(F)F)n2)c([N+](=O)[O-])c1 8.37%
Cc1cc(C(F)F)nn1CC(=O)NC1C(=O)N2C(C(=O)O)=C(CSc3nnnn3C)CSC12 (centres undefined) -11.2%
COc1ccccc1CNc1nc(-c2ccc3c(c2)OCO3)nc2ccccc12 -9.84%
CCN(CC)CCCNC(=O)C1CCC(=O)N(c2ccc(OC)cc2)C1c1ccc(F)cc1 (centres undefined) 0.847%
CC(=O)c1c(C)n([O-])c2cc(F)c(F)cc2[n+]1=O 4.66%
Clc1ccc(OCCCN2CCCCC2)c(Br)c1 -6.99%
Cc1cccc[n+]1CC(=O)Nc1ccc([N+](=O)[O-])cc1Cl -3.63%
COC(=O)[C@@]1(Cc2ccc(OC)cc2)[C@H]2c3cc(C(=O)N(C)C)n(Cc4ccc(C(F)(F)F)nc4)c3C[C@H]2CN1C(=O)c1ccccc1 -17.1%
CCCCNC(=O)c1onc(CSc2cccc3ccccc23)c1C(=O)O -10.6%
CCCCCSc1nnc(-c2ccccc2N)c(=O)[nH]1 -1.76%
CC(=O)C1=C(C)Nc2ncnn2C1c1ccccc1OCc1ccccc1 (centres undefined) 1.74%

Potency, inactive:
C1CCC(C(CC2CCCCN2)C2CCCCC2)CC1 (centres undefined)

Potency, inconclusive:
CCOC(=O)CSC1=NN2CCS(=O)(=O)N=C2S1 39.8 µM [inhibitor, single point]
CCc1cc2c(CN3CCN(CC)CC3)cc(=O)oc2cc1O 25.1 µM [inhibitor, partial curve]
CC1=C(C(=O)OCC2CCCO2)C(c2ccccc2)C2=C(CC(C)(C)CC2=O)N1 (centres undefined) 25.1 µM [inhibitor, partial curve]
CC(=O)c1ccc(S(=O)(=O)N2CCCCC2C(=O)O)cc1 (centres undefined) 39.8 µM [inhibitor, single point]
CCOC(=O)c1ccc(N2C(=O)C3ON(c4ccccc4)C(c4ccco4)C3C2=O)cc1 (centres undefined) 35.5 µM [inhibitor, single point]
COC(=O)c1cc(OC)c(OC)cc1NC(=S)Nc1cccc(C(C)=O)c1 31.6 µM [inhibitor, single point]
O=C(Nc1ccccc1C(=O)N1CCOCC1)c1noc2c1CCCC2 44.7 µM [inhibitor, single point]
N#Cc1ccc(-c2csc(NNC(=O)c3ccc(Br)cc3)n2)cc1 39.8 µM [inhibitor, single point]
CC1SCC(=O)N(CC(=O)Nc2ccc3c(c2)OCCO3)C1=O (centres undefined) 31.6 µM [inhibitor, single point]
Cc1ccc(NC(=O)c2cc(-c3ccccc3)nn2-c2ccccc2)cc1 39.8 µM [inhibitor, single point]
O=C(COc1ccccc1-c1ccccc1)N/N=C/c1cccc2ccccc12 39.8 µM [inhibitor, single point]
Cc1ccc(C)c(N(C(=O)c2nsc(Cl)c2Cl)C(C(=O)NC2CCCC2)c2ccc(O)cc2)c1 (centres undefined) 39.8 µM [inhibitor, single point]
CC1CCCN(c2nc(N(C)c3ccccc3)nc(N)c2[N+](=O)[O-])C1 (centres undefined) 39.8 µM [inhibitor, single point]
CNS(=O)(=O)c1cccc(C(=O)OCC(=O)C23CC4CC(CC(C4)C2)C3)c1 22.4 µM [inhibitor, partial curve]
CCN(CCn1cccn1)C(=O)CCc1nnc(-c2ccccc2)o1 23.8 µM [inhibitor, single point]
CCNc1ncc2ncc(=O)n(Cc3cccs3)c2n1 25.1 µM [inhibitor, partial curve]
Cc1ccc([N+](=O)[O-])cc1NC(=O)CN(C(=O)c1ccc(Cl)cc1)C1CCCCC1 8.91 µM [inhibitor, full curve]
Cc1c(CN2CCC(CO)(CCOc3ccccc3)CC2)[nH]c2c(Cl)cccc12 8.91 µM [inhibitor, single point]
O=C1CCc2cc(S(=O)(=O)N3CCN(Cc4ccc5c(c4)OCO5)CC3)ccc2N1 39.8 µM [inhibitor, single point]
Cc1ccc(-n2nc(C(=O)NCc3ccc(C)o3)c3c4ccccc4n(C)c3c2=O)cc1 25.1 µM [inhibitor, single point]
N#Cc1c(-c2ccco2)ccn(Cc2ccc(F)cc2)c1=O 35.5 µM [inhibitor, single point]
COc1ccc(S(=O)(=O)NCc2ccc(C(=O)N3CCN(c4ccccn4)CC3)cc2)cc1 0.224 µM [inhibitor, full curve, poor fit]
Cc1cccc(N=C2NN=C(c3c[nH]c4ccccc34)CS2)c1 39.8 µM [inhibitor, single point]
Cc1ccc(O)c(C(=O)c2cnc3c(c2)c(=O)n(C)c(=O)n3C)c1 22.4 µM [inhibitor, single point]
COCCn1c(=O)c(-c2ccc(OC)cc2)nc2cnc(N3CCNCC3)nc21 28.2 µM [inhibitor, single point]
BrC(=C\c1ccccc1)/C=N/N1CCN(c2ccccc2)CC1 39.8 µM [inhibitor, single point]
COC(=O)c1c(NC(=O)c2ccoc2C)sc2c1CCC2 28.2 µM [inhibitor, single point]
CCN(CC)c1ccc2cc(-c3nnc(-c4ccccc4)o3)c(=O)oc2c1 39.8 µM [inhibitor, single point]
CCOC(=O)C1CCN(c2c(NCc3ccc(C(=O)N(C)Cc4ccccc4)cc3)c(=O)c2=O)CC1 11.9 µM [inhibitor, partial curve]
CCOC(=O)c1cnc2cc3c(cn2c1=O)CCCC3 28.2 µM [inhibitor, partial curve]
Cc1ccnn1CCC(=O)N1CCCC(CCC(=O)N2CCN(c3ccccn3)CC2)C1 (centres undefined) 39.8 µM [inhibitor, single point]
O=C1/C(=C\c2ccccc2)CCc2c1[nH]c1ccccc21 39.8 µM [inhibitor, single point]
Nc1c(S(=O)(=O)c2ccccc2)c2nc3ccccc3nc2n1/N=C/c1cccc(O)c1 35.5 µM [inhibitor, partial curve]
COc1ccc2c(c1)OCC1=C2CCC2(C)C(=O)CC=C12 (centres undefined) 35.5 µM [inhibitor, partial curve]
N#Cc1nc(-c2ccccc2)oc1N1CCCCC1 31.6 µM [inhibitor, partial curve]
Cc1ccc(O)c(NC(=O)C2CC(c3c(F)cccc3Cl)=NO2)c1 (centres undefined) 25.1 µM [inhibitor, single point]

Potency, active:
CCc1ccc(NC(=O)CCNS(=O)(=O)c2cccc3nonc23)cc1 22.4 µM
O=C(CCc1ccc(Oc2cc([N+](=O)[O-])cc([N+](=O)[O-])c2)cc1)N1CCCCCC1 12.6 µM
CC(C)NC(C(=O)Nc1cc(Cl)cc(Cl)c1)c1ccccc1 (centres undefined) 11.2 µM
COc1ccc(NC(=O)/C(Cl)=C(/Cl)S(=O)Cc2ccc(Cl)cc2)cn1 (centres undefined) 0.355 µM
Cc1ccc(S(=O)(=O)/N=C/c2ccc(N(C)C)cc2)cc1 12.6 µM
O=[N+]([O-])C(/C=C(\Cl)[N+](=O)[O-])=C(N1CCCCC1)N1CCCCC1 14.1 µM
O=C(CCNc1ccc(F)cc1)c1ccco1 1.41 µM
CCN1CC2=C(OC(N)=C(C#N)C2c2cccs2)/C(=C/c2cccs2)C1 (centres undefined) 17.8 µM
O=C(O)/C=C\C(=O)Nc1ccc(N2CCN(c3ccc(Cl)cc3)CC2)cc1 11.2 µM
CCn1c2ccc(F)cc2c2nnc(NN)nc21 7.08 µM
O=c1ccn(CCc2c[nH]c3ccccc23)c2c1CCCC2 14.1 µM
CCCOC(=O)c1ccc(NC(=O)CSC2=Nc3ccccc3C3CC=NN23)cc1 (centres undefined) 31.6 µM
CCCCc1cc2c(cn1)=C(OC(=O)c1ccc(Cl)nc1)C(C)(OC(=O)CC)C(=O)C=2 (centres undefined) 3.16 µM
CCOC(=O)CN(Cc1ccccc1)S(=O)(=O)c1ccc(NC(C)=O)cc1 5.62 µM
